Consider three proteins from publication PMC12460146, “Impact of metabolic enzyme activity variability on dabrafenib disposition” (Frontiers in Pharmacology, 2025).

Assay type in all cases: in vitro ADME, human
Substrate in data set [1]: CC(C)(C)c1nc(-c2cccc(NS(=O)(=O)c3c(F)cccc3F)c2F)c(-c2ccnc(N)n2)s1
Briefly: In vitro enzyme kinetics assay using CYP3A4 baculosomes: CYP3A4.1. The note with it: other: CYP3A4.1; dabrafenib 5–250 µM. Here is the method: (§1) Recombinant CYP3A4 and CYPb5 proteins were prepared according to our previously established protocol ([Fang et al., 2017]). Briefly, dual expression vectors (pFastBac-Dual) were used to construct CYP3A4-CYPOR and CYPb5-CYPOR expression plasmids. Subsequently, the corresponding baculosomes were harvested by ultracentrifugation using the baculovirus-insect cell expression system, and the target proteins were confirmed. Protein expression levels for each type were qualitatively and quantitatively assessed by Western blotting and BCA assay, respectively.
(§2) The 200 µL incubation system comprised 0.1 M Tris-HCl, 5 µg CYP3A4.1 or other CYP3A4 variants, 5 µg CYPb5, 1 mM NADPH, and dabrafenib. A dabrafenib concentration of 10 µM was used to evaluate variant specific metabolic activity. Michaelis-Menten kinetics were assessed using dabrafenib concentrations of 5, 10, 20, 50, 100, and 250 µM. Subsequent processing steps followed the procedures outlined in Section 2.3.

Substrate in data set [2]: CC(C)(C)c1nc(-c2cccc(NS(=O)(=O)c3c(F)cccc3F)c2F)c(-c2ccnc(N)n2)s1
Briefly: In vitro enzyme kinetics assay using CYP3A4 baculosomes: CYP3A4.28. The note with it: other: CYP3A4.28; dabrafenib 5–250 µM. On the procedure:
as §1, §2

Substrate in data set [3]: CC(C)(C)c1nc(-c2cccc(NS(=O)(=O)c3c(F)cccc3F)c2F)c(-c2ccnc(N)n2)s1
Description: In vitro enzyme kinetics assay using CYP3A4 baculosomes: CYP3A4.8. The note with it: other: CYP3A4.8; dabrafenib 5–250 µM. On the procedure: as §1, §2

Usually Km stands for the substrate concentration at which the rate is half of its maximum.

B1: CYP3A4.1 (Homo sapiens) (protein)
chain: MALIPDLAMETWLLLAVSLVLLYLYGTHSHGLFKKLGIPGPTPLPFLGNILSYHKGFCMFDMECHKKYGKVWGFYDGQQPVLAITDPDMIKTVLVKECYSVFTNRRPFGPVGFMKSAISIAEDEEWKRLRSLLSPTFTSGKLKEMVPIIAQYGDVLVRNLRREAETGKPVTLKDVFGAYSMDVITSTSFGVNIDSLNNPQDPFVENTKKLLRFDFLDPFFLSITVFPFLIPILEVLNICVFPREVTNFLRKSVKRMKESRLEDTQKHRVDFLQLMIDSQNSKETESHKALSDLELVAQSIIFIFAGYETTSSVLSFIMYELATHPDVQQKLQEEIDAVLPNKAPPTYDTVLQMEYLDMVVNETLRLFPIAMRLERVCKKDVEINGMFIPKGVVVMIPSYALHRDPKYWTEPEKFLPERFSKKNKDNIDPYIYTPFGSGPRNCIGMRFALMNMKLALIRVLQNFSFKPCKETQIPLKLSLGGLLQPEKPVVLKVESRDGTVSGA
notes: made in house; host or cells: insect cells (baculovirus, pFastBac-Dual)
Regarding B1, in data set [1], the Km was determined as 17.78 ± 1.535 µM and the Vmax/Km stood at 15 µL/min/mg.

B2: CYP3A4.28 (Homo sapiens; L22V) (protein)
chain: MALIPDLAMETWLLLAVSLVLVYLYGTHSHGLFKKLGIPGPTPLPFLGNILSYHKGFCMFDMECHKKYGKVWGFYDGQQPVLAITDPDMIKTVLVKECYSVFTNRRPFGPVGFMKSAISIAEDEEWKRLRSLLSPTFTSGKLKEMVPIIAQYGDVLVRNLRREAETGKPVTLKDVFGAYSMDVITSTSFGVNIDSLNNPQDPFVENTKKLLRFDFLDPFFLSITVFPFLIPILEVLNICVFPREVTNFLRKSVKRMKESRLEDTQKHRVDFLQLMIDSQNSKETESHKALSDLELVAQSIIFIFAGYETTSSVLSFIMYELATHPDVQQKLQEEIDAVLPNKAPPTYDTVLQMEYLDMVVNETLRLFPIAMRLERVCKKDVEINGMFIPKGVVVMIPSYALHRDPKYWTEPEKFLPERFSKKNKDNIDPYIYTPFGSGPRNCIGMRFALMNMKLALIRVLQNFSFKPCKETQIPLKLSLGGLLQPEKPVVLKVESRDGTVSGA
notes: as for B1
As for B2, in data set [2], the Km turned out to be 19.59 ± 1.624 µM and the Vmax/Km came to 19 µL/min/mg.

B3: CYP3A4.8 (Homo sapiens; R130Q) (protein)
chain: MALIPDLAMETWLLLAVSLVLLYLYGTHSHGLFKKLGIPGPTPLPFLGNILSYHKGFCMFDMECHKKYGKVWGFYDGQQPVLAITDPDMIKTVLVKECYSVFTNRRPFGPVGFMKSAISIAEDEEWKRLQSLLSPTFTSGKLKEMVPIIAQYGDVLVRNLRREAETGKPVTLKDVFGAYSMDVITSTSFGVNIDSLNNPQDPFVENTKKLLRFDFLDPFFLSITVFPFLIPILEVLNICVFPREVTNFLRKSVKRMKESRLEDTQKHRVDFLQLMIDSQNSKETESHKALSDLELVAQSIIFIFAGYETTSSVLSFIMYELATHPDVQQKLQEEIDAVLPNKAPPTYDTVLQMEYLDMVVNETLRLFPIAMRLERVCKKDVEINGMFIPKGVVVMIPSYALHRDPKYWTEPEKFLPERFSKKNKDNIDPYIYTPFGSGPRNCIGMRFALMNMKLALIRVLQNFSFKPCKETQIPLKLSLGGLLQPEKPVVLKVESRDGTVSGA
notes: as for B1
As to B3, in data set [3], the Km turned out to be 47.37 ± 12.486 µM and the Vmax/Km was 5 µL/min/mg.
